Source: PubChem BioAssay AID485344 (National Center for Advancing Translational Sciences (NCATS), 2010)
Where “and” joins values, the source holds several entries; their conditions need not be identical. Equal values may be shown once. Hit rate of the full screen: of about 340,000 compounds, about 6,900 (2%) were called active. No stated cut-off is given here; in the data, active means inhibition above about 30%; inactive means below that, where a call was filed. The list shows a part of the results, in another mix than the full data. The source gives no active or inactive call for entries shown without one.

target: D(2) dopamine receptor (Homo sapiens) (UniProt P14416); assay: HTS Assay for Allosteric Antagonists of the Human D2 Dopamine Receptor: Primary Screen for Antagonists; settings: HEK293 TREx D2 cells, calcium flux, dopamine EC80; at 10 µM; stronger effect = higher value; further: 0% is about no effect
Sequence of UniProt P14416 (P14416 whole entry, looked up): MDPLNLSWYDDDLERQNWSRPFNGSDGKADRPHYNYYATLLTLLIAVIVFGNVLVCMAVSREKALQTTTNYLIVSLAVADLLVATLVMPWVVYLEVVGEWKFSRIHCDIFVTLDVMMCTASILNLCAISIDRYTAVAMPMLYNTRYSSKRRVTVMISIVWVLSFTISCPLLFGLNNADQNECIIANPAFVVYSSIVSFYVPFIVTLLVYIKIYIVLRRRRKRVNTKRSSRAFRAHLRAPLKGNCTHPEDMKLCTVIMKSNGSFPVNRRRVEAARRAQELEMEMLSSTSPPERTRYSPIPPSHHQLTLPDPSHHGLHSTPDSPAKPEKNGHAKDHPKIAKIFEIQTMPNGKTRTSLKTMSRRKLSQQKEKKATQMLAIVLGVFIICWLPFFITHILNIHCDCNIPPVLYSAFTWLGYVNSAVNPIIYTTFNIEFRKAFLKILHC
Outline: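 Tetracycline-induced HEK293 TREx cells expressing D2 receptor forced-coupled to calcium signalling, loaded with no-wash calcium dye. Compounds added and calcium flux read 180 s, then dopamine added at EC80 and read a further 180 s.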

Structure (SMILES) | inhibition
COc1ccccc1NC(=O)Cn1c(=O)n(-c2cccc(Cl)c2)c(=O)c2c1c1cc(C)ccc1n2C | 9.06%
COc1cccc(NC(=O)CSc2nnc(-c3cccs3)o2)c1 | 0.0224%
CN1CCc2nc3sc(C(=O)Nc4cccc(C#N)c4)c(N)c3cc2C1 | 11.9%
Cc1cc(C)cc(Nc2nnc(-n3nc(C)cc3C)c3ccccc23)c1 | -1.36%
CCCOc1ccc(C2c3c(-c4ccccc4O)n[nH]c3C(=O)N2CCCOCC)cc1OCC (stereo not given) | 15.8%
O=C(Nc1cccc(F)c1)c1cccc2c1C(=O)N(C1CCCCC1)C2 | -5.77%
CCC(=O)N1CCCc2cc(S(=O)(=O)N3CCC(C(=O)Nc4ccccc4CC)CC3)ccc21 | 10.3%
Cc1ccccc1Nc1cc(C(=O)NCCc2ccc(Cl)cc2)c2ccccc2n1 | 21.1%
Cc1ccc2c(CC(=O)N(Cc3ccc(Cl)cc3)Cc3ccco3)coc2c1 | 5.56%
COc1cc(C2c3c(oc4ccc(C)cc4c3=O)C(=O)N2Cc2ccccc2)ccc1O (stereo not given) | 14.6%
Cc1oc(-c2ccc(Cl)cc2)nc1CSCC(=O)NCc1ccccc1Cl | 13.2%
CCC(=O)N1CCc2cc(Br)cc(S(=O)(=O)N3CCCC(C(=O)NCc4ccc(OC)cc4)C3)c21 (stereo not given) | -1.5%
CC(CNC(=O)Cn1c(-c2cccs2)cc2ccccc21)c1ccccc1 (stereo not given) | 5.66%
COC(=O)Cc1c(C)c2ccc3c(c2oc1=O)CN(Cc1ccccc1OC)CO3 | -2.93%
COc1cccc(-c2nc(CS(=O)(=O)CC(=O)NCCc3ccc(OC)c(OC)c3)c(C)o2)c1 | -2.93%
Cc1ccc(C(=O)Nc2nc(-c3nnn(-c4cccc(Cl)c4C)c3C)ns2)cc1C | -12.6%
CCOC(=O)C1=C(CN2CCN(c3cccc(OC)c3)CC2)NC(=O)NC1c1ccc(OC)cc1 (stereo not given) | -3.3%
COc1ccc(NS(=O)(=O)c2ccc3c(c2)CC(C)N3C(C)=O)c(OC)c1 (stereo not given) | -4.4%
Cn1c(=O)c2c(n3ncnc13)NC(=O)CC2c1cccc(F)c1 (stereo not given) | -9.04%
Cc1ccc(-n2c(=O)c3c(cnn3C)n(CC(=O)Nc3c(C)cccc3C)c2=O)cc1 | -11.7%
COc1ccc(NC(=O)c2oc3c(c2C)-c2nn(Cc4ccccc4Cl)cc2CC3)cc1OC | -4.64%
C=Cc1ccc(CSc2nnc(C)n3c2cc2occc23)cc1 | 8.1%
Cc1c(C(=O)Nc2ccc(F)c(F)c2)oc2ccc(S(=O)(=O)N(C)C3CCCCC3)cc12 | 3.82%
CCOC(=O)c1ccc(NC(=O)C(C)N(c2ccc(OCC)cc2)S(C)(=O)=O)cc1 (stereo not given) | -2.73%

Structure (SMILES) | inhibition
COc1ccc(CNC(=O)c2cc3c(=O)n4cccc(C)c4nc3s2)cc1 | 5.33%
O=C(Nc1cc2ccc(O)cc2oc1=O)c1ccc(F)cc1 | 10.3%
CCOC(=O)c1[nH]c(C)c(CCC(=O)NC(C)c2ccccc2)c1C (stereo not given) | 15.1%
Cc1cccc(CNC(=O)Cc2ccc(NC(=O)N3CCCCc4ccccc43)cc2)c1 | 8.5%
CCOc1ccc(-c2cn3c(n2)sc2cc(C(=O)NCCCN(CC)CC)ccc23)cc1 | 10.2%
COc1ccc(CCNC(=O)CCCCn2c(=O)c3ccccc3n(Cc3ccc(Cl)cc3)c2=O)cc1OC | -9.44%
Cc1ccc(N(C)C(=O)Cn2cc(S(=O)(=O)N3CCCC3)c(S(=O)(=O)N3CCCC3)c2)cc1 | 7.71%
CCOC(=O)c1cc(-c2ccccc2)n(CCC(=O)Nc2ccc(C)cc2Cl)c1C | -18.7%
COc1ccc(OC)c(S(=O)(=O)N2Cc3ccccc3CC2C(=O)Nc2ccc(Cl)cc2)c1 (stereo not given) | 25%
Cc1ccc2c(c1)C(=O)C(=O)N2Cc1ccc(OC(C)C)cc1 | -0.08%
CCOc1ccc(-c2nn(-c3ccccc3)cc2C2NC(=O)NC(C)=C2C(=O)OC(C)C)cc1C (stereo not given) | -17.2%
Cc1ccc(-n2nc(CO)c(C(=O)NCCCCc3ccccc3)n2)cc1 | 19.2%
Cc1ccc(C(=O)N2CCC(N3CCN(Cc4ccc(F)cc4)C(=O)C3=O)CC2)cc1 | 7.24%
O=C1C(c2ccc(F)cc2)N(Cc2ccccc2Cl)C(=O)CN1C1CCCCC1 (stereo not given) | 11.9%
Cc1ccc2c(c1)CC(C)N2S(=O)(=O)c1nnc(NC(=O)c2ccccc2F)s1 (stereo not given) | 28.1%
O=C(C1COc2ccccc2O1)N1CCCCC1 (stereo not given) | active: 51.3%
CCOc1ccc(CNC(=O)c2[nH]c3ccccc3c2Sc2ccc(C)cc2)cc1 | 2.07%
Cc1ccc(NC(=O)CCS(=O)(=O)c2ccc(Br)cc2)c(C)c1 | 14.4%
Cc1ccc(S(=O)(=O)CCC(=O)OCC(=O)N2c3ccccc3NC(=O)C2(C)C)cc1 | active: 89.9%
COC(=O)c1ccc2c(c1)N(CC(=O)Nc1cccc(C(F)(F)F)c1)C(=O)c1ccccc1S2 | -3.36%
COc1ccc(NC(=O)C2CCCN(S(=O)(=O)c3ccc4c(c3)CCCN4C(C)=O)C2)cc1 (stereo not given) | -4.58%
O=C(CN(CCc1ccccc1)S(=O)(=O)c1ccccc1)NCc1ccc(Cl)cc1 | 4.84%
COc1cc(CNc2ccc3c(c2)ncn3C(C)C)cc(OC)c1OC | -0.837%
Cc1cc(Cl)ccc1Nc1ncnc2onc(C)c12 | -6.84%

Structure (SMILES) | inhibition
Cc1ccc(Cl)cc1N1CCN(C(=O)c2cc(S(=O)(=O)N3CCCCCC3)cn2C)CC1 | -18.9%
Fc1ccccc1OCc1nc(-c2ccc(-n3cccc3)cc2)no1 | -0.293%
COc1cccc(NC(=O)CSCn2nnc3c(=O)[nH]c(Cc4ccc(F)cc4)nc32)c1 | 17.2%
O=C(Nc1ccccc1Cl)C1CCN(c2nc3ccccc3[nH]2)CC1 | 0.297%
CN(Cc1ccc(F)cc1)S(=O)(=O)c1nnc(NC(=O)c2ccc(F)cc2)s1 | 7.31%
COc1ccc(NC(=O)CSc2c3c(nc4ccccc24)CCC3)c(OC)c1 | -15.4%
CC(=O)c1cccc(CN2CCN(CCc3ccccc3)C(CCO)C2)c1 (stereo not given) | active: 34.3%
COc1ccc(N2CCN(C(=O)CN(C)S(=O)(=O)c3cccs3)CC2)cc1 | 7.82%
COc1ccc(Cn2ccnc2SCC(=O)Nc2cc(C(F)(F)F)ccc2Cl)cc1 | 6.45%
COc1cccc(Nc2sc(C(=O)c3ccc(F)cc3)c(N)c2C(=O)NCc2ccc(C)cc2)c1 | 21.1%
CC(NC(=O)c1cccc(S(=O)(=O)N2CCN(Cc3ccccc3)CC2)c1)c1ccc(Cl)cc1 (stereo not given) | active: 35.8%
COc1ccc(-c2cn3nc(N4CCCC(C(=O)NCc5ccccc5C)C4)sc3n2)cc1 (stereo not given) | 1.59%
CCOC(=O)c1ccccc1NC(=O)c1sc2ccccc2c1Cl | -9.75%
CCN(CC)C(=O)Cn1c(=O)cc(C)c2c(C)nn(C)c21 | 7.31%
Cc1c(C(=O)N2CCCCCC2)nnn1-c1nonc1N | active: 40.8%
Cc1ccccc1-n1c(=O)c2c3c(sc2n2cnnc12)CCCC3 | 7.53%
COc1ccc(CNC(=O)C2CCN(c3nnc(-n4cccc4CNc4ccc(C)cc4)s3)CC2)c(OC)c1 | 1.74%
O=S(=O)(Nc1cccc(-c2ccc(N3CCCC3)nn2)c1)c1ccc(F)cc1F | -1.81%
O=S(=O)(c1ccc(F)cc1)N1CCC(n2c(C(F)(F)F)nc3cccnc32)CC1 | -3.71%
Cc1ccc(S(=O)(=O)c2nc(-c3cccc(C)c3)oc2N2CCCCC2)cc1 | 9.52%
O=C(CCN1CCCCC1)Nc1cccc(Br)c1 | active: 54.8%
Cc1cccc(C)c1OCC1CNC(=O)O1 (stereo not given) | active: 36.1%
Cc1cc(-c2ccc(C)c(S(=O)(=O)N(C)c3ccc(C)c(C)c3)c2)on1 | 5.02%
COc1ccccc1NC(=O)Cn1c(=O)n(Cc2ccco2)c(=O)c2cccnc21 | -2.27%

Structure (SMILES) | inhibition
CCOC(=O)c1c(Oc2ccc(OC)cc2)nnc(-c2ccccc2)c1-c1ccccc1 | 19.9%
COc1ccc(N(Cc2cccs2)C(=O)Nc2ccccc2)cc1 | 5.21%
COc1ccc(OC)c(NC(=O)CN2C(=O)c3ccccc3Sc3ccc(C(=O)N4CCCC4)cc32)c1 | 6.1%
Cc1cc(C)c2c(=O)cc(CSc3nnc(COc4ccccc4C)n3C)[nH]c2c1 | -6.02%
COc1ccccc1-c1cc(C(F)(F)F)nc(S(=O)(=O)CCCC(=O)Nc2cc(OC)c(OC)c(OC)c2)n1 | 10.3%
COc1ccc(CC(=O)NCc2ccc3c(c2)CCN3C(=O)c2ccc(Cl)cc2)cc1OC | 5.4%
O=c1cc(-c2ccccc2)c2cc(Cl)c3c(c2o1)CN(Cc1ccccc1)CO3 | 19.3%
CCOC(=O)c1ccc(N2C(=O)c3n[nH]c(-c4cccs4)c3C2c2ccc(C(C)C)cc2)cc1 (stereo not given) | -0.323%
Cc1ccc2c(c1)c1c(c(=O)n(-c3ccccc3C)c(=O)n1CC(=O)NCc1ccccc1)n2C | 7.63%
COc1ccc(Cn2c(-c3ccc(C)cc3)nc3c(c(=O)c4ccccc4n3C)c2=O)cc1 | active: 37.5%
O=C(NNC(=O)c1sccc1-n1cccc1)c1ccc(Cl)cc1 | active: 36.4%
Cc1ccc(CNS(=O)(=O)c2cc(C(=O)Nc3cccc(C(F)(F)F)c3)ccc2F)cc1 | 5.66%
CCS(=O)(=O)c1ncc(Cl)c(C(=O)N2CCN(c3cccc(Cl)c3)CC2)n1 | -4.58%
NC(=O)C1(N2CCCCC2)CCN(C(=O)Nc2ccc(C(F)(F)F)cc2)CC1 | -21.1%
CC1c2ccccc2SC(CCCN(C)C)c2ccccc21 (stereo not given) | active: 50.5%
Cc1ccc(NCc2ccccc2-c2nnc(-c3ccccc3Cl)o2)c(C)c1 | -2.1%
COc1ccc(NC(=O)Nc2sc3nc4n(c(=O)c3c2C)CCC(C)CC4)cc1OC (stereo not given) | 6.13%
CCc1cc2cc3c(cc2nc1SCC(=O)Nc1cc(C)on1)OCO3 | active: 31.9%
Cc1noc(/C=C/N(C)C)c1S(=O)(=O)N1CCCC(C(=O)Nc2ccc(F)cc2F)C1 (stereo not given) | -19.9% and active: 54.1%
Cc1nc2c(C(=O)NCCc3ccccc3)cnn2c(C)c1Cc1c(F)cccc1Cl | 0.169%
Cc1c2cnn(CC(=O)NCc3ccc(F)cc3)c(=O)c2c(C)n1Cc1ccccc1F | 0.0946%
COc1ccc(Cl)cc1Nc1ncnc2c1c(-c1ccccc1)cn2-c1ccccc1 | 2.11%
CC(C)(C)OC(=O)N1CCC(c2c(C(=O)NCc3cccs3)cnn2-c2ccc(F)cc2F)CC1 | 0.956%
